# Results taken from the supplement of paper PMC8728848.
# Some of the results follow.
# Legend:
# Assay in all cases: glycan array binding signal (z-score within array); higher = stronger binding
# Conditions in all cases: glycan notation: IUPAC condensed, linker removed
# [1] = biological target: GlcNAc(b1-4)GlcNAc(b1-4)GlcNAc(b1-4)GlcNAc(b1-4)GlcNAc
# How it was run: (§1)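 Glycan array binding is given as a within-array Z-score, which can be read as non-binding when negative. The arrays, 3228 of them, came from the Consortium for Functional Glycomics database and were retained only where the protein sequence was available. Z-scores were averaged across arrays of the same protein sequence at different concentrations or buffers and across linkers.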
# [2] = biological target: GlcNAc(b1-4)GlcNAc(b1-4)GlcNAc(b1-4)GlcNAc(b1-4)GlcNAc(b1-4)GlcNAc
# How it was run: as §1
# [3] = biological target: GlcNAc(b1-4)[GlcNAc(b1-6)]GalNAc
# How it was run: as §1
# [4] = biological target: GlcNAc(b1-6)Gal(b1-4)GlcNAc
# How it was run: as §1
# GlcNAc(b1-6)GalNAc = biological target: GlcNAc(b1-6)GalNAc
# How it was run: as §1
# Kdn(a2-3)Gal(b1-3)GlcNAc = biological target: Kdn(a2-3)Gal(b1-3)GlcNAc
# How it was run: as §1
# Kdn(a2-3)Gal(b1-4)GlcNAc = biological target: Kdn(a2-3)Gal(b1-4)GlcNAc
# How it was run: as §1
# [5] = biological target: Man(a1-2)Man(a1-2)Man(a1-3)Man
# How it was run: as §1
# [6] = biological target: Man(a1-2)Man(a1-2)Man(a1-3)[Man(a1-2)Man(a1-3)[Man(a1-2)Man(a1-6)]Man(a1-6)]Man(b1-4)GlcNAc(b1-4)GlcNAc
# How it was run: as §1
# [7] = biological target: Man(a1-2)Man(a1-2)Man(a1-3)[Man(a1-2)Man(a1-6)[Man(a1-3)]Man(a1-6)]Man(b1-4)GlcNAc(b1-4)GlcNAc
# How it was run: as §1
# [8] = biological target: Man(a1-2)Man(a1-2)Man(a1-6)[Man(a1-3)]Man
# How it was run: as §1
# Man(a1-2)Man(a1-3)Man = biological target: Man(a1-2)Man(a1-3)Man
# How it was run: as §1
# [9] = biological target: Man(a1-2)Man(a1-3)[Man(a1-2)Man(a1-6)]Man
# How it was run: as §1
# [10] = biological target: Man(a1-2)Man(a1-3)[Man(a1-2)Man(a1-6)]Man(a1-6)[Man(a1-2)Man(a1-2)Man(a1-3)]Man(b1-4)GlcNAc(b1-4)GlcNAc
# How it was run: as §1
# [11] = biological target: Man(a1-2)Man(a1-3)[Man(a1-2)Man(a1-6)]Man(a1-6)[Man(a1-3)[Man(a1-6)]Man(a1-6)]Man(b1-4)GlcNAc(b1-4)GlcNAc
# How it was run: as §1
# [12] = biological target: Man(a1-2)Man(a1-3)[Man(a1-3)[Man(a1-6)]Man(a1-6)]Man(b1-4)GlcNAc(b1-4)GlcNAc
# How it was run: as §1
# [13] = biological target: Man(a1-2)Man(a1-3)[Man(a1-6)]Man(a1-6)[Man(a1-2)Man(a1-3)]Man(b1-4)GlcNAc(b1-4)GlcNAc
# How it was run: as §1
# [14] = biological target: Man(a1-2)Man(a1-6)[Man(a1-3)]Man(a1-6)[Man(a1-2)Man(a1-2)Man(a1-3)]Man(b1-4)GlcNAc(b1-4)GlcNAc
# How it was run: as §1
# Man(a1-3)[Man(a1-6)]Man = biological target: Man(a1-3)[Man(a1-6)]Man
# How it was run: as §1
# [15] = biological target: Man(a1-3)[Man(a1-6)]Man(a1-6)[Man(a1-3)]Man(b1-4)GlcNAc(b1-4)GlcNAc
# How it was run: as §1
# [16] = biological target: Man(a1-3)[Man(a1-6)]Man(b1-4)GlcNAc(b1-4)GlcNAc
# How it was run: as §1
# Man(b1-4)GlcNAc = biological target: Man(b1-4)GlcNAc
# How it was run: as §1
# Neu5Ac(a2-3)Gal = biological target: Neu5Ac(a2-3)Gal
# How it was run: as §1
# [17] = biological target: Neu5Ac(a2-3)Gal(b1-3)GalNAc
# How it was run: as §1
# [18] = biological target: Neu5Ac(a2-3)Gal(b1-3)GalNAc(b1-3)Gal(a1-4)Gal(b1-4)Glc
# How it was run: as §1
# [19] = biological target: Neu5Ac(a2-3)Gal(b1-3)GalNAc(b1-4)[Neu5Ac(a2-3)]Gal(b1-4)Glc
# How it was run: as §1
# [20] = biological target: Neu5Ac(a2-3)Gal(b1-3)GalNAc6S
# How it was run: as §1
# [21] = biological target: Neu5Ac(a2-3)Gal(b1-3)GlcNAc
# How it was run: as §1
# [22] = biological target: Neu5Ac(a2-3)Gal(b1-3)GlcNAc(b1-3)Gal(b1-3)GlcNAc
# How it was run: as §1
# [23] = biological target: Neu5Ac(a2-3)Gal(b1-3)GlcNAc(b1-3)Gal(b1-4)GlcNAc
# How it was run: as §1
# [24] = biological target: Neu5Ac(a2-3)Gal(b1-3)GlcNAc6S
# How it was run: as §1
# [25] = biological target: Neu5Ac(a2-3)Gal(b1-3)[Fuc(a1-4)]GlcNAc
# How it was run: as §1
# [26] = biological target: Neu5Ac(a2-3)Gal(b1-3)[Fuc(a1-4)]GlcNAc(b1-3)Gal(b1-4)[Fuc(a1-3)]GlcNAc
# How it was run: as §1
# [27] = biological target: Neu5Ac(a2-3)Gal(b1-3)[Neu5Ac(a2-3)Gal(b1-4)]GlcNAc
# How it was run: as §1
# [28] = biological target: Neu5Ac(a2-3)Gal(b1-3)[Neu5Ac(a2-6)]GalNAc
# How it was run: as §1
# Neu5Ac(a2-3)Gal(b1-4)Glc = biological target: Neu5Ac(a2-3)Gal(b1-4)Glc
# How it was run: as §1
# [29] = biological target: Neu5Ac(a2-3)Gal(b1-4)GlcNAc
# How it was run: as §1
# [30] = biological target: Neu5Ac(a2-3)Gal(b1-4)GlcNAc(b1-3)Gal(b1-3)GlcNAc
# How it was run: as §1
# [31] = biological target: Neu5Ac(a2-3)Gal(b1-4)GlcNAc(b1-3)Gal(b1-4)GlcNAc
# How it was run: as §1
# [32] = biological target: Neu5Ac(a2-3)Gal(b1-4)GlcNAc(b1-3)Gal(b1-4)GlcNAc(b1-3)Gal(b1-4)GlcNAc
# How it was run: as §1
# [33] = biological target: Neu5Ac(a2-3)Gal(b1-4)GlcNAc(b1-3)Gal(b1-4)[Fuc(a1-3)]GlcNAc
# How it was run: as §1
binder,measurement,setting,value
"FBG3 (Homo sapiens), Q9H4M3 (protein) MAVGNINELPENILLELFTHVPARQLLLNCRLVCSLWRDLIDLVTLWKRKCLREGFITEDWDQPVADWKIFYFLRSLHRNLLHNPCAEEGFEFWSLDVNGGDEWKVEDLSRDQRKEFPNDQVKKYFVTSYYTCLKSQVVDLKAEGYWEELMDTTRPDIEVKDWFAARPDCGSKYQLCVQLLSSAHAPLGTFQPDPATIQQKSDAKWREVSHTFSNYPPGVRYIWFQHGGVDTHYWAGWYGPRVTNSSITIGPPLP",glycan array binding signal (z-score),[1],-0.636
same,glycan array binding signal (z-score),[2],-0.499
same,glycan array binding signal (z-score),[3],-0.524
same,glycan array binding signal (z-score),[4],-0.592
same,glycan array binding signal (z-score),GlcNAc(b1-6)GalNAc,-0.448
same,glycan array binding signal (z-score),Kdn(a2-3)Gal(b1-3)GlcNAc,-0.588
same,glycan array binding signal (z-score),Kdn(a2-3)Gal(b1-4)GlcNAc,-0.316
same,glycan array binding signal (z-score),[5],-0.403
same,glycan array binding signal (z-score),[6],-0.329
same,glycan array binding signal (z-score),[7],0.292
same,glycan array binding signal (z-score),[8],-0.447
same,glycan array binding signal (z-score),Man(a1-2)Man(a1-3)Man,-0.171
same,glycan array binding signal (z-score),[9],-0.478
same,glycan array binding signal (z-score),[10],0.214
same,glycan array binding signal (z-score),[11],-0.296
same,glycan array binding signal (z-score),[12],-0.063
same,glycan array binding signal (z-score),[13],-0.19
same,glycan array binding signal (z-score),[14],-0.497
same,glycan array binding signal (z-score),Man(a1-3)[Man(a1-6)]Man,-0.303
same,glycan array binding signal (z-score),[15],-0.243
same,glycan array binding signal (z-score),[16],-0.064
same,glycan array binding signal (z-score),Man(b1-4)GlcNAc,-0.529
same,glycan array binding signal (z-score),Neu5Ac(a2-3)Gal,-0.319
same,glycan array binding signal (z-score),[17],-0.293
same,glycan array binding signal (z-score),[18],-0.264
same,glycan array binding signal (z-score),[19],0.021
same,glycan array binding signal (z-score),[20],-0.272
same,glycan array binding signal (z-score),[21],-0.365
same,glycan array binding signal (z-score),[22],-0.619
same,glycan array binding signal (z-score),[23],-0.849
same,glycan array binding signal (z-score),[24],-0.738
same,glycan array binding signal (z-score),[25],-0.503
same,glycan array binding signal (z-score),[26],0.235
same,glycan array binding signal (z-score),[27],-0.437
same,glycan array binding signal (z-score),[28],-0.531
same,glycan array binding signal (z-score),Neu5Ac(a2-3)Gal(b1-4)Glc,-0.379
same,glycan array binding signal (z-score),[29],-0.478
same,glycan array binding signal (z-score),[30],-0.658
same,glycan array binding signal (z-score),[31],-0.44
same,glycan array binding signal (z-score),[32],-0.726
same,glycan array binding signal (z-score),[33],-0.634
